The other results are listed elsewhere or left out. At the low end of the ranking the order means little.
The sequences below were run against GST-SBP-SLBP (stem-loop binding protein) (UniProt Q14493) (assay: targeted RNA Bind-n-Seq). Conditions: RBNS binding buffer: 25 mM Tris pH 7.5, 150 mM KCl, 3 mM MgCl2, 0.1% Tween, 0.5 mg/mL BSA, 1 mM DTT; 27 nM protein, 750 pM RNA pool; temperature not stated; high values mean tight binding.
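Further: DESeq read counts versus GST-SBP nonspecific binding control pulldown.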

Row | Sequence | binding signal (log2 fold change)
1 | GGUCACGUCUCAAUCAACUCUAUGUCAGGAGUUUCCUCCUGCUUAUUCAACAGCUCGCAGUCAAG | 0.0552
2 | GGUCACGUCUCAAUCAACUCAACUCCAGGAGUUUACUCCUGCUAACUCAACAGCUCGCAGUCAAG | 0.0678
3 | GGUCACGUCUCAAUCAACUCAAUAGAGGGGGGGAAAACCCCUUUGCCCUCAUUCUCAACAGCUCGCAGUCAAG | -0.116
4 | GGUCACGUCUCAAUCAACUCUUCUCCCAGGGAAAACCCUGGCUAUCUCAACAGCUCGCAGUCAAG | -0.126
5 | GGUCACGUCUCAAUCAACUCAUCAGAGGGGGGGAAAACCCCUUUACCCUCCACAUCAACAGCUCGCAGUCAAG | 0.149
6 | GGUCACGUCUCAAUCAACUCUUACGAGGGGGGGAAAACCCCUUUACCCUCUUUUUCAACAGCUCGCAGUCAAG | 0.274
7 | GGUCACGUCUCAAUCAACUCUACUCCCAGGGAAACCCCUGGUAUUCUCAACAGCUCGCAGUCAAG | -0.291
8 | GGUCACGUCUCAAUCAACUCAGUCUCCAGGGAAAACCCUGGUAUAUUCAACAGCUCGCAGUCAAG | 0.0128
9 | GGUCACGUCUCAAUCAACUCUCUGGAGGGGGGGAAAACCCCUUUACCCUCAAUCUCAACAGCUCGCAGUCAAG | -0.315
10 | GGUCACGUCUCAAUCAACUCUAUAGAGGGGGGGAAAACCCCUUUACCCUCAUCGUCAACAGCUCGCAGUCAAG | -0.195
11 | GGUCACGUCUCAAUCAACUCAUCCUCAGGAGUUUUCUCCUGCAUUCUCAACAGCUCGCAGUCAAG | 0.108
12 | GGUCACGUCUCAAUCAACUCACACGAGGGGGGGAAAACCCCUUUACCCUCACAUUCAACAGCUCGCAGUCAAG | -0.165
13 | GGUCACGUCUCAAUCAACUCAUUCUCCAGGGAAACCCCUGGCAUUUUCAACAGCUCGCAGUCAAG | 0.0302
14 | GGUCACGUCUCAAUCAACUCAAUCUCCAGGGAAAGCCCUGGCAUAUUCAACAGCUCGCAGUCAAG | 0.274
15 | GGUCACGUCUCAAUCAACUCAUUUCCAGGAGUUUUCUCCUGCAUACUCAACAGCUCGCAGUCAAG | -0.0244
16 | GGUCACGUCUCAAUCAACUCAAUUUCAGGAGUUUUCUCCUGUAAACUCAACAGCUCGCAGUCAAG | -0.0628
17 | GGUCACGUCUCAAUCAACUCAAGUCCAGGAGUUUUCUCCUGCAAUCUCAACAGCUCGCAGUCAAG | -0.121
18 | GGUCACGUCUCAAUCAACUCAUCUUCCAGGGAAACCCCUGGCGUAUUCAACAGCUCGCAGUCAAG | -0.179
19 | GGUCACGUCUCAAUCAACUCUUUCGAGGGGGGGAAAACCCCUUUGCCCUCAUAUUCAACAGCUCGCAGUCAAG | -0.172
20 | GGUCACGUCUCAAUCAACUCUACUCCAGGAGUUUCCUCCUGUUUAUUCAACAGCUCGCAGUCAAG | 0.033
21 | GGUCACGUCUCAAUCAACUCUCUAGAGGGGGGGAAAACCCCUUUACCCUCAUACUCAACAGCUCGCAGUCAAG | -0.00253
22 | GGUCACGUCUCAAUCAACUCUCACGAGGGGGGGAAAACCCCUUUACCCUCAAUUUCAACAGCUCGCAGUCAAG | 0.0287
23 | GGUCACGUCUCAAUCAACUCUUUCUCCAGGGAAAGCCCUGGCAAUUUCAACAGCUCGCAGUCAAG | 0.03
24 | GGUCACGUCUCAAUCAACUCAUCUUCAGGAGUUUACUCCUGCAUACUCAACAGCUCGCAGUCAAG | 0.181
25 | GGUCACGUCUCAAUCAACUCGUCUUCAGGAGUUUUCUCCUGCUUUCUCAACAGCUCGCAGUCAAG | -0.0211

Row | Sequence | binding signal (log2 fold change)
26 | GGUCACGUCUCAAUCAACUCAGUCCCAGGAGUUUCCUCCUGCAUAUUCAACAGCUCGCAGUCAAG | 0.0864
27 | GGUCACGUCUCAAUCAACUCUUAAGAGGGGGGGAAAACCCCUUUACCCUCAAAAUCAACAGCUCGCAGUCAAG | 0.666
28 | GGUCACGUCUCAAUCAACUCCAAAGAGGGGGGGAAAACCCCUUUGCCCUCAAUCUCAACAGCUCGCAGUCAAG | 0.107
29 | GGUCACGUCUCAAUCAACUCAAGGUCAGGAGUUUCCUCCUGUAAAUUCAACAGCUCGCAGUCAAG | 0.224
30 | GGUCACGUCUCAAUCAACUCCUACGAGGGGGGGAAAACCCCUUUACCCUCAUCUUCAACAGCUCGCAGUCAAG | -0.192
31 | GGUCACGUCUCAAUCAACUCCUCGGAGGGGGGGAAAACCCCUUUACCCUCAUUUUCAACAGCUCGCAGUCAAG | -0.271
32 | GGUCACGUCUCAAUCAACUCACAAGAGGGGGGGAAAACCCCUUUGCCCUCAAACUCAACAGCUCGCAGUCAAG | 0.0112
33 | GGUCACGUCUCAAUCAACUCAUCGUCAGGAGUUUACUCCUGCUAUUUCAACAGCUCGCAGUCAAG | 0.254
34 | GGUCACGUCUCAAUCAACUCAACUCCAGGAGUUUUCUCCUGCAUUUUCAACAGCUCGCAGUCAAG | 0.109
35 | GGUCACGUCUCAAUCAACUCUAUCCCCAGGGAAAUCCCUGGUUUACUCAACAGCUCGCAGUCAAG | 0.0192
36 | GGUCACGUCUCAAUCAACUCUUCGUCAGGAGUUUCCUCCUGUAAAUUCAACAGCUCGCAGUCAAG | 0.024
37 | GGUCACGUCUCAAUCAACUCAAAAGAGGGGGGGAAAACCCCUUUGCCCUCCAACUCAACAGCUCGCAGUCAAG | -0.45
38 | GGUCACGUCUCAAUCAACUCAAUCCCAGGAGUUUCCUCCUGCAAUGUCAACAGCUCGCAGUCAAG | 0.122
39 | GGUCACGUCUCAAUCAACUCAAUCCCCAGGGAAAUCCCUGGCAUACUCAACAGCUCGCAGUCAAG | -0.2
40 | GGUCACGUCUCAAUCAACUCCACGGAGGGGGGGAAAACCCCUUUACCCUCAUCUUCAACAGCUCGCAGUCAAG | -0.144
41 | GGUCACGUCUCAAUCAACUCUUUUUCAGGAGUUUCCUCCUGCUUUUUCAACAGCUCGCAGUCAAG | -0.0313
42 | GGUCACGUCUCAAUCAACUCUCACGAGGGGGGGAAAACCCCUUUACCCUCUUUUUCAACAGCUCGCAGUCAAG | -0.199
43 | GGUCACGUCUCAAUCAACUCAUUCCCAGGAGUUUCCUCCUGUUAUUUCAACAGCUCGCAGUCAAG | -0.191
44 | GGUCACGUCUCAAUCAACUCAUCCCCAGGAGUUUCCUCCUGUAAUCUCAACAGCUCGCAGUCAAG | 0.139
45 | GGUCACGUCUCAAUCAACUCUUUCUCCAGGGAAACCCCUGGUUUUCUCAACAGCUCGCAGUCAAG | 0.0593
46 | GGUCACGUCUCAAUCAACUCAUCGCCCAGGGAAACCCCUGGUUUAUUCAACAGCUCGCAGUCAAG | -0.0473
47 | GGUCACGUCUCAAUCAACUCAUCGUCCAGGGAAAUCCCUGGUUAUCUCAACAGCUCGCAGUCAAG | 0.00673
48 | GGUCACGUCUCAAUCAACUCUUUCCCCAGGGAAACCCCUGGUUUACUCAACAGCUCGCAGUCAAG | 0.0377
49 | GGUCACGUCUCAAUCAACUCAUCGCCCAGGGAAAACCCUGGUUUAUUCAACAGCUCGCAGUCAAG | -0.292
50 | GGUCACGUCUCAAUCAACUCUUUUCCCAGGGAAAUCCCUGGCAUAUUCAACAGCUCGCAGUCAAG | 0.112

Row | Sequence | binding signal (log2 fold change)
51 | GGUCACGUCUCAAUCAACUCAUUUCCAGGAGUUUUCUCCUGUAUAUUCAACAGCUCGCAGUCAAG | 0.0558
52 | GGUCACGUCUCAAUCAACUCAUCCCCAGGAGUUUUCUCCUGCAUAUUCAACAGCUCGCAGUCAAG | 0.0745
53 | GGUCACGUCUCAAUCAACUCAUUUUCCAGGGAAAUCCCUGGUAUUCUCAACAGCUCGCAGUCAAG | 0.0873
54 | GGUCACGUCUCAAUCAACUCUCCUGAGGGGGGGAAAACCCCUUUACCCUCUUUUUCAACAGCUCGCAGUCAAG | 0.0102
55 | GGUCACGUCUCAAUCAACUCACAAGAGGGGGGGAAAACCCCUUUGCCCUCCAUAUCAACAGCUCGCAGUCAAG | 0.125
56 | GGUCACGUCUCAAUCAACUCUAUUUCAGGAGUUUACUCCUGUUUUCUCAACAGCUCGCAGUCAAG | 0.0148
57 | GGUCACGUCUCAAUCAACUCAUCUUCAGGAGUUUGCUCCUGUUUUCUCAACAGCUCGCAGUCAAG | 0.0548
58 | GGUCACGUCUCAAUCAACUCUAUGUCAGGAGUUUACUCCUGUUUAUUCAACAGCUCGCAGUCAAG | 0.0418
59 | GGUCACGUCUCAAUCAACUCCUACGAGGGGGGGAAAACCCCUUUACCCUCUUUAUCAACAGCUCGCAGUCAAG | 0.105
60 | GGUCACGUCUCAAUCAACUCUAUCCCAGGAGUUUUCUCCUGUUUUGUCAACAGCUCGCAGUCAAG | -0.145
61 | GGUCACGUCUCAAUCAACUCUACUCCAGGAGUUUUCUCCUGUAUUUUCAACAGCUCGCAGUCAAG | -0.129
62 | GGUCACGUCUCAAUCAACUCUUCGUCAGGAGUUUCCUCCUGUUUAUUCAACAGCUCGCAGUCAAG | 0.086
63 | GGUCACGUCUCAAUCAACUCUACUUCAGGAGUUUUCUCCUGCUAUUUCAACAGCUCGCAGUCAAG | -0.0336
64 | GGUCACGUCUCAAUCAACUCAAAAGAGGGGGGGAAAACCCCUUUGCCCUCCGUAUCAACAGCUCGCAGUCAAG | -0.103
65 | GGUCACGUCUCAAUCAACUCAUCGCCCAGGGAAAACCCUGGUAAUUUCAACAGCUCGCAGUCAAG | -0.329
66 | GGUCACGUCUCAAUCAACUCAUUCUCCAGGGAAAGCCCUGGCUAUCUCAACAGCUCGCAGUCAAG | -0.331
67 | GGUCACGUCUCAAUCAACUCACUCGAGGGGGGGAAAACCCCUUUACCCUCACCUUCAACAGCUCGCAGUCAAG | 0.152
68 | GGUCACGUCUCAAUCAACUCUUCUCCCAGGGAAAACCCUGGUUUUCUCAACAGCUCGCAGUCAAG | 0.0576
69 | GGUCACGUCUCAAUCAACUCUAUCUCCAGGGAAAUCCCUGGUAAAUUCAACAGCUCGCAGUCAAG | 0.183
70 | GGUCACGUCUCAAUCAACUCAUCUCCCAGGGAAACCCCUGGUAUACUCAACAGCUCGCAGUCAAG | -0.0911
71 | GGUCACGUCUCAAUCAACUCUUCUCCCAGGGAAAUCCCUGGCAUUCUCAACAGCUCGCAGUCAAG | 0.0258
72 | GGUCACGUCUCAAUCAACUCAUCCUCCAGGGAAAUCCCUGGUUAAUUCAACAGCUCGCAGUCAAG | -0.134
73 | GGUCACGUCUCAAUCAACUCUAUCCCAGGAGUUUCCUCCUGUAUUUUCAACAGCUCGCAGUCAAG | 0.204

Reference: article PMC5892938
